± gives the standard deviation of the averaged measurements. The list shows a part of the results.
These sequences were tested on PfAP2-EXP AP2 domain (GST-tagged) (assay: gcPBM binding intensity (ln(normalized median fluorescence intensity)); higher = stronger DNA binding).
Procedure, shortened: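 Using an Agilent 4 × 180k array, primer-extended double-stranded 36-bp intergenic genomic probes and negative controls were exposed for 1 h to GST-fused P. falciparum DNA-binding domains expressed in E. coli. Binding was carried out in 1× PBS with 1% milk, 0.2 mg/ml BSA, 0.5% salmon testes DNA and 0.03% Triton X-100, and protein was detected with Alexa488 anti-GST antibody and a 488 nm scan. Binding intensity is the highest Masliner-normalised natural-log median intensity across replicate spots of either probe orientation.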

| Sequence | gcPBM binding intensity (ln) |
| --- | --- |
| ATATTATATTATATAACACACATTTTTCATAACACT [CACACA_site407] | 8.58 ± 0.45 |
| TGTTTAAATTTTTTGTTTTTTTTTTTATAAAGCAAA [TGCATGCA_negctrl_site313] | 8.13 ± 0.3 |
| ACATATATATATAAATATATATATATATAAATATAT [CACACA_negctrl_site895] | 8.355 ± 0.007 |
| GTTGAACATAGATGCACACACATAAAATAAAAAAAA [CACACA_site5353] | 8.67 ± 0.58 |
| TTGTTGTTATTTAAAACACACATCAATCATCTTAAC [CACACA_site1142] | 8.3 ± 0.3 |
| TATATTTTTTTAAAAAGTACTTTGTATATATATATA [XGTACX_site1300] | 9.91 ± 0.15 |
| TGAAGGTCAGTTCACAGTACCCAGTAACTCTACGGA [XGTACX_site2554] | 8.4 ± 0.47 |
| ATAAAAAAATAAATTAGTACATATATATATATATAT [XGTACX_site6971] | 10.1 ± 0.35 |
| TTACGCATACTAATTACACACAAATAGATGAATATA [CACACA_site1338] | 8.47 ± 0.38 |
| GTTGCGTATATATACACACATACATATATATATATA [CACACA_site1607] | 10.1 ± 0.23 |
| TTATATAATAAAAATTGTACATATTATATATATATT [XGTACX_site3427] | 8.19 ± 0.26 |
| TATGAAAGAAATAGTACACACATAAACATTTGTAAA [CACACA_site2783] | 8.44 ± 0.28 |
| TAATATTCAATTATACGTACACATATATATATATAT [XGTACX_site4245] | 10.2 ± 0.2 |
| TCATATATCATAACAGTGCAAAAAAAAAAAAATTAT | 8.8 ± 0.41 |
| AGAAAATATACAAAACGTACTTATATATTATATCTA [XGTACX_site3104] | 8.2 ± 0.3 |
| GTTTGATTAAACTTGACACACATATATATAAATATA [CACACA_site1784] | 8.43 ± 0.54 |
| AAAAAAAAAAAAGAAACACACATATATATATATATA [CACACA_site140] | 10.1 ± 0.6 |
| GTTAGAGGGAAAAAGAGTACATATATGTGGATAATT [XGTACX_site2064] | 9 ± 0.44 |
| TATTTATGTATATGCTGTACGCATTTGTGAAACATA [XGTACX_site4688] | 8.72 ± 0.38 |
| AACCAATTAGAAGGATCCAGAACTTATTTGTTTTTA [CACACA_negctrl_site1744] | 8.18 ± 0.54 |
| AGTTTGTCAATCAACACACACCTATTTATTATATAT [CACACA_site6030] | 8.52 ± 0.29 |
| TACAAGCCCAATTCAAGTACATATATATATATATAT [XGTACX_site5569] | 10.2 ± 0.44 |

| Sequence | gcPBM binding intensity (ln) |
| --- | --- |
| ATTCATTCATATGTTACACACACACGCCCACATAAA [CACACA_site7513] | 9 ± 0.37 |
| TAAAAAAAGGTTATTGGTACACACATATGTATATAT [XGTACX_site1029] | 8.49 ± 0.3 |
| TTATATATATATATATATATTTACATAATAATATGT [GTGCAC_negctrl_site388] | 8.48 ± 0.16 |
| TAAACTTTCCAGTGTTGTACATAATAATTATTATAT [XGTACX_site8896] | 8.51 ± 0.35 |
| AAAGATATGAAATATACACACTTCTTTGGTATTATT [CACACA_site6352] | 8.2 ± 0.48 |
| AAATATTTATAGGTTTGTACTTATAAATAAAAAAAA [XGTACX_site7360] | 8.43 ± 0.24 |
| TTTATAAAAATGAACACACACATATATATATATATA [CACACA_site3493] | 10.4 ± 0.3 |
| AATATGAAAAGATGAACAACAAAATGGAGAACAATA [GTGCAC_negctrl_site612] | 9.12 ± 0.57 |
| ATACAAAATTTTTAAGAACACACAAAAATGTACTAT [CACACA_site8817] | 8.64 ± 0.38 |
| TGAGGTAACTAAATATGTACGTAACGAAGATACATA [XGTACX_site8231] | 8.78 ± 0.35 |
| GAACGCCATTCACATAAAGGGATACATAAATAAATA [XGTACX_negctrl_site330] | 8.4 ± 0.42 |
| GCGTTATTAAATAATTCACACACATATATATATATA [CACACA_site8711] | 10 ± 0.38 |
| AAGAAAAACTTTACGTGTACCAAACGTCATGCCAAC [XGTACX_site2575] | 8.55 ± 0.53 |
| TAATTTCTTATGTATTGTACAAATAATGTATGATAT [XGTACX_site270] | 8.68 ± 0.32 |
| TTCTTGTATTTTCATAGTACATATAATGTCGTATTA [XGTACX_site600] | 8.71 ± 0.38 |
| TACTTACACTGTTTTTGTACTTATTTCCCTTTTATT [XGTACX_site2158] | 9.12 ± 0.6 |
| AATCACAAATAAAATAATATGACACAATATAAAATA [CACACA_negctrl_site537] | 8.61 ± 0.37 |
| AAATGTTATAACTCTTGAAAAAACAAAATATCATCA [CACACA_negctrl_site1156] | 8.41 ± 0.47 |
| ACTTTACAATATATATGTACATATTAATAAACATAT [XGTACX_site3689] | 8.74 ± 0.42 |
| AAAATAATATATGTATGTACATATACACATATAGAA [XGTACX_site2218] | 8.4 ± 0.092 |
| GAGTTTTTTTAATGATGTACATTTTAAAAATAAACG [XGTACX_site1036] | 8.48 ± 0.21 |
| TTTATTATACAAAATTGTACTTTATAATTTTATGTA [XGTACX_site5846] | 8.38 ± 0.16 |

| Sequence | gcPBM binding intensity (ln) |
| --- | --- |
| AAATATTACGGAATAAAGAGCTTTTAAATAATTTTA [CACACA_negctrl_site1700] | 8.11 ± 0.52 |
| AGAAACCTTGTTAGTTAGCATATATATATATATATA [CACACA_negctrl_site372] | 10.2 ± 0.49 |
| AAATATAAACGGCACACACACAAAAAAAGAAAAAAA [CACACA_site649] | 8.71 ± 0.52 |
| TATTTTATACATATTTTACACACTAATATATACATA [CACACA_site7998] | 8.56 ± 0.34 |
| GAATATAATCTGTATTGTACGAAAGTTGAACACTTG [XGTACX_site8895] | 8.44 ± 0.31 |
| TGAGCATAAAAAGGGTGTACTTAAATATATTATATA [XGTACX_site7556] | 8.54 ± 0.35 |
| TATATATATATATATATATATACAAATATATATTAT [CACACA_negctrl_site1729] | 10.1 ± 0.27 |
| TTTAGATAATTCATTACACACATGTATTTATATATA [CACACA_site5847] | 8.46 ± 0.33 |
| TTGTATTATTATGTTGCACACATTTTATATAAAATA [CACACA_site3641] | 9.06 ± 0.31 |
| ATAAAAGATATTTTTACACACTTTTGATGAGATCGT [CACACA_site3053] | 8.43 ± 0.38 |
| GGTTGTATAAGTTTTTGTACATATATATATATATAT [XGTACX_site7487] | 10.2 ± 0.49 |
| TTCAAGGTTTTAGATTGTACAATTATTATATATATA [XGTACX_site8982] | 9.01 ± 0.042 |
| ATACCAACATATTATACACACCTTTATATTTTTTTT [CACACA_site5217] | 8.8 ± 0.33 |
| ATATGTAGATGATATTATTACTTTTCAAAAATTCAA [CACACA_negctrl_site933] | 8.21 ± 0.39 |
| TAATAAGAAATAACAGGTACACATATATAAATATTA [XGTACX_site2976] | 8.54 ± 0.33 |
| TTTTTCATTAATACAAGTACAAAATGATGTTGACAT [XGTACX_site1475] | 8.3 ± 0.3 |
| AAGTATAAAAAAAGGCGTACAAAAAAAAAAAAAAAA [XGTACX_site7309] | 8.41 ± 0.5 |
| TGTGCCCAAAATTATGCACACACCTAAAATTAATTT [CACACA_site2914] | 8.69 ± 0.071 |
| ATGGTAGTTCTCCATGCATGCCTTTTTATTATCATA [TGCATGCA_site681] | 9.28 ± 0.38 |
| TTTTTGTAAAAACACACACACAAACAGAAAAAATAA [CACACA_site2076] | 9.04 ± 0.52 |
| ATTATCATAATGTTCACACATATGGTATATATAGAT [CACACA_site6113] | 8.62 ± 0.35 |
| TTTTATCTTTTTTTATTTTAATGTATTATTTTTATG [XGTACX_negctrl_site24] | 8.73 ± 0.59 |

| Sequence | gcPBM binding intensity (ln) |
| --- | --- |
| ACTATTTAGTCTGGTGGTACTTTATATATAATTTCT [XGTACX_site5618] | 8.53 ± 0.91 |
| ATATGTGTATGTGCGTGTACATATCTATACAGTTGT [XGTACX_site6540] | 8.79 ± 0.16 |
| ATAAATAAAGGACACACACACACACTAGAAAAAAAA [CACACA_site5450] | 8.84 ± 0.64 |
| TTGTGCTTGATATCACGGACAAGCTCATATTATATA [XGTACX_site4553] | 8.37 ± 0.35 |
| AAAATAAAATTAGTTGCATGCAACTTAAACAGAAAT [TGCATGCA_site860] | 10.3 ± 0.35 |
| TATATTATTAAGATATGTACATAATTATAAATTTAA [XGTACX_site6848] | 8.52 ± 0.45 |
| ATGAAAAAATTTATATGTACTTAAAATATAATCATA [XGTACX_site1228] | 8.19 ± 0.32 |
| TATAAATATAAATATACACACATATTTATATTTATA [CACACA_site7053] | 8.37 ± 0.37 |
| CTCTATAAATGCTGCACACACATTTAATTATTTAAG [CACACA_site2582] | 8.63 ± 0.25 |
| TATAAATAAAAACACACACACACATATATATATATA [CACACA_site2268] | 9.99 ± 0.39 |
| TTTTACAATGAAAGGTGTACAAGTAACAGTAGAACA [XGTACX_site1528] | 9.01 ± 0.25 |
| AAATGAAATACATCCTGTACATAGTAATGCTAACAA [XGTACX_site6600] | 8.6 ± 0.38 |
| GATATATATTAATATACACACACACCGATATATATA [CACACA_site8462] | 8.78 ± 0.43 |
| TATTTTTATATTTTTGCACACATTCTTTACTCTTCA [CACACA_site2211] | 9.13 ± 0.3 |
| AAAAATTTTATATTCACACACATATATATATATATA [CACACA_site624] | 10.2 ± 0.42 |
| AACAAATACAGACACACACACACACTAATAAAAAAA [CACACA_site8067] | 8.66 ± 0.52 |
| AAATTCCACCAACACACACACATATAAATAAATAAA [CACACA_site1233] | 8.52 ± 0.53 |
| AATAAATAGATAAGCACACAAGCATATAGACATATA [CACACA_site222] | 8.6 ± 0.49 |
| TTTTGAAACATATGATGTACACGAACATTTAAAAAA [XGTACX_site474] | 8.79 ± 0.39 |
| TTTATATTTTATAAATTATTCATAAATATATTTGTA [TGCATGCA_negctrl_site175] | 8.1 ± 0.43 |
| AAATTTGGTGAAGGATGTACTTTACCTAATACTTGT [XGTACX_site4825] | 8.49 ± 0.33 |
| AAAACAAAAAAATTTTGTACGAAACAATACTGTAAG [XGTACX_site7992] | 8.61 ± 0.38 |
